Assay results reported in PMC12136788.
The other results are listed elsewhere or left out.

T1: UNK ZnF1-3 (human, UniProt Q9C0B0 31-174)
T1 sequence: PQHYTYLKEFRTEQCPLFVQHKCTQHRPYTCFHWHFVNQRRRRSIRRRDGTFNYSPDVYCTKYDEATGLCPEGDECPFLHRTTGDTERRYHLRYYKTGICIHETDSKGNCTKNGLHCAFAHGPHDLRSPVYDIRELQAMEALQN

B1: 122489335_122512930_691_3pUTR_ENSMUSG00000034602_ENSMUST00000073792|mouse|control|control (ssRNA)
RNA: GGGAGUUCUACAGUCCGACGAUCGCUGCACGACCUCUGAGCUGUUCUCUUUCAAUGCUGCCAAAAUUUCCGUGUUUCUUGCAGCUAUUGUUUUAACUUUUAUUAUUCCCGAUUCAGCAGCCUCCUUGACAGGUGGGAACUUCUCAACAGAGGAUUGAGCAUCA
B2: chr1:225611761:225611762:-_ENSG00000143815_ENST00000272163|hu_mus|hu_hu_hu_mus_True|28_78 (ssRNA)
RNA: GGGAGUUCUACAGUCCGACGAUCCCAGGCCAUCGGCCUCUGACCACUUCACCCUCAGCAAAUUUCCUACUUGGCAUUUUCUAAAAUUAGUCUGGCCGCGCUCCGGCCGGUGACACGGCCACUCCAGGACAGUCACCAGCAGCCCAACAGAGGAUUGAGCAUCA
B3: chr6:146524949:146524950:-_ENSMUSG00000040250_ENSMUST00000032427|mus_hu|FALSE|FALSE (ssRNA)
RNA: GGGAGUUCUACAGUCCGACGAUCCUGCCUGCAAGAUUCUGCCAUAUAAGGGCAGUGAUCCACAACAAACACUGUUUUAUGAGAUUCAGAAAAAAUCUUCAUUUUGUUUUAACUUUCGUGCCUGGUCCUGCAGUGAAAACGAACCAACAGAGGAUUGAGCAUCA
B4: chr20:32439910:32439911:+_ENSG00000101421_ENST00000217402|hu_mus|FALSE|FALSE (ssRNA)
RNA: GGGAGUUCUACAGUCCGACGAUCAGGGACUGUUUCGGGCCCACUGAUCUCCAACAAAUUCUUGUCCAACUCCUCUUGUUCAAGUUCCUCCAACUCUGCCAUGAGCUCAUCCUCGUCGAACUCUUCUCCAAAGCCCACAGGUUUCAACAGAGGAUUGAGCAUCA
B5: chr7:135612270:135612271:-_ENSG00000105887_ENST00000393085|hu_mus|hu_hu_hu_mus_False|48_58 (ssRNA)
RNA: GGGAGUUCUACAGUCCGACGAUCGUUUUUUUCUGAGAUGUUAAAUAGUACUUCAGUGGAAAACAAAACUUAACCUUUCGCUAAUGCAUGUAGUACCAAAAGCAGACAUUUUAGCUUCAUUUAUUCAAAAAUAUUAACAUUAAGCAACAGAGGAUUGAGCAUCA
B6: chr13:14146135:14146136:-_ENSMUSG00000021302_ENSMUST00000170957|mus_mus|FALSE|FALSE (ssRNA)
RNA: GGGAGUUCUACAGUCCGACGAUCAGUGUAUGCAAAAGAACCUACAUCCUCCAGGUACUGCACACAAUACUUUUUAAUAUCUAUAUUCUCUGUUCUCUGGCGCAGGAUGUUCUGUACCUGGGUGCUUUCUGGCCUUGACCAAAUCAACAGAGGAUUGAGCAUCA
B7: chrX:69798090:69798091:-_ENSMUSG00000031343_ENSMUST00000055966|mus_mus|mus_mus_mus_hu_False|38_108 (ssRNA)
RNA: GGGAGUUCUACAGUCCGACGAUCAAGUCCCCAGGUUCUUGUCGUCUUGAUUCCCCUUGACCAGUGGUUCCAGGGAGAAUAUUAAUCAGGAAAAGAAGUACAACUCUGGUCAUGUAACAGUGACUUGUUUGUGUGAUUAUCAUCCAACAGAGGAUUGAGCAUCA
B8: chr5:93704372:93704373:+_ENSMUSG00000029385_ENSMUST00000031331|mus_hu|FALSE|FALSE (ssRNA)
RNA: GGGAGUUCUACAGUCCGACGAUCAACCAUUAAGGAUUAUCCACUGUCCCUGCUAAGGAAGCACUUGCAUACUUCCAAUCUGCUUAAAGACAUCUGAAGGUUUUAUAAAAUGUUUAAGAUAAGCUACACUAGUUAUUUUUAAAACAACAGAGGAUUGAGCAUCA
B9: chr15:95746395:95746396:+_ENSMUSG00000064210_ENSMUST00000071874|mus_mus|FALSE|FALSE (ssRNA)
RNA: GGGAGUUCUACAGUCCGACGAUCCCAUUCUCUGUACAGGAGGUAACGCUCGCUAGGACAACUGAUGUCCUCCGACUCAUAGUUGAAUCUGCAGUCGUGCAGAGGAAACGCUGCUUUGUAGAUUCCAGAGCUGACCAGUCUAUUCAACAGAGGAUUGAGCAUCA
B10: chr11:105967523:105967524:+_ENSG00000149313_ENST00000278618|hu_hu|FALSE|FALSE (ssRNA)
RNA: GGGAGUUCUACAGUCCGACGAUCCCAAAAUGAAGGAUCUUCAGGUGUCAUGGGAACGGCAGAUGACAUUAAAUCAUUAAAGUUGAGAAUAGUAAAUUGCCUCUGGGUUGGUUUGGAAUCAUCCUGAGAUGGAACAUCCUGAUGCAACAGAGGAUUGAGCAUCA
B11: chr1:66480114:66480115:+_ENSMUSG00000015222_ENSMUST00000024639|mus_hu|mus_mus_mus_hu_True|28_98 (ssRNA)
RNA: GGGAGUUCUACAGUCCGACGAUCUGGCCUGUGGCGGAUGUUCUUUAGAGAGCCACAUUUGGAUGUCACAUGGCUUAGGUCUAUUUUCUUGGUAACAAUUUGUACCUGACCCCCCUUAGGCUGGUAUUUGAUGUUGUCUGUUGACAACAGAGGAUUGAGCAUCA
B12: chr4:175158712:175158713:-_ENSG00000164117_ENST00000503293|hu_mus|FALSE|FALSE (ssRNA)
RNA: GGGAGUUCUACAGUCCGACGAUCACGGCGCGUAUUUCGAAUAAACUCUCUUUUUGACAUUUUAUUCUUCACAUGAGGACUAGUGAGGUCAAUGGAAAGUAGAAUCAAAGAGUAGCACAGUACAUAGACAGCAUCAGGACUAAGCAACAGAGGAUUGAGCAUCA
B13: chr14:76904568:76904569:+_ENSMUSG00000022010_ENSMUST00000022587|mus_hu|motif|central (ssRNA)
RNA: GGGAGUUCUACAGUCCGACGAUCGUUUUCAGUCCCCAGCAAGGAUGACAAGAAAGAAAUUGAAAAAUGUCUCAGUUGGUAAACUCCGGGAUCCAUCGCCACUGGUCUACACCAUUGGGAUUUCAUGCAAUUGCAGCCAAAAACCAACAGAGGAUUGAGCAUCA
B14: chrX:154448470:154448471:+_ENSG00000155959_ENST00000286428|hu_mus|FALSE|FALSE (ssRNA)
RNA: GGGAGUUCUACAGUCCGACGAUCAUCCAGCUUCUUUAACACUGUAUCUGCAGUCUCAUUCCCAGGCUGCUUCAUGAAAGAAUCUACAUCUUCCACAAACACUGCUUCAGGAAUCCCUAAGUGGAGCCGCCGCCCGUUUCCAGCCAACAGAGGAUUGAGCAUCA
B15: chr6:31458560:31458561:+_ENSMUSG00000025609_ENSMUST00000026699|mus_mus|FALSE|FALSE (ssRNA)
RNA: GGGAGUUCUACAGUCCGACGAUCUCAGAGGAGAGUGAGAGCGUAGGUUCUGCAUAGCUCUACCAGCAGUCAUUUCCUUUAAAAUCCCAACAGAGAUAUCAGUAAAAAUAGGGGGAAGGACAGCACCUCUCCUGCUGGUCACCUCAACAGAGGAUUGAGCAUCA
B16: chr17:61432403:61432404:+_ENSG00000170921_ENST00000424789|hu_hu|motif|central (ssRNA)
RNA: GGGAGUUCUACAGUCCGACGAUCCUUCAUAUUGCACUGGAGUAAAUAAACCUCUGAGAGCGAAACAGGAACUACUUUGUAGCGGGAGCUCUUUAACACUAGAUAGCCUUUCUCUAUGAGGUCAAAUGUAAGUUUCAGAUAUAGCAACAGAGGAUUGAGCAUCA
B17: chr4:43046810:43046811:-_ENSMUSG00000036002_ENSMUST00000107956|mus_mus|FALSE|FALSE (ssRNA)
RNA: GGGAGUUCUACAGUCCGACGAUCGAAGAGGCGAUGGCGCAGGAAGGUCAUGUGGGCAGCAGGCAUGUCCGAGAAGUCAAAGGUCACAAGGAACAUCUUCACCACAGUCUGGUUGGGGUUAAAUAAGGUCACUUGGAUGGUGCCCAACAGAGGAUUGAGCAUCA
B18: chr1:150192741:150192742:-_ENSG00000143401_ENST00000314136|hu_mus|motif|central (ssRNA)
RNA: GGGAGUUCUACAGUCCGACGAUCAAUUAUGGGCUAAAAAUGUCUAAUACAUUAAGCAUGAAUUAUAAAAAUCCAGAAUCGGAAUACAGUGCUAGAGAAUUUCACUAUGGGAAGAUGAAUGAGAAUUCUUUUCUAAGAACAUUACAACAGAGGAUUGAGCAUCA
B19: chr15:78834838:78834839:+_ENSG00000041357_ENST00000044462|hu_mus|motif|central (ssRNA)
RNA: GGGAGUUCUACAGUCCGACGAUCAUCAAGAAGCUUGUGGAUGUUGCGCCUCUCCGCUGCAAGCAAAACUCCAUCAUUGGCGGAAAUCCCCAAACAGGUGCCUGCAUGUCCAAUGGCUUCCAUGGCAUACUCCACUUGGUAUAACAACAGAGGAUUGAGCAUCA
B20: chr14:102550858:102550859:-_ENSG00000080824_ENST00000216281|hu_hu|FALSE|FALSE (ssRNA)
RNA: GGGAGUUCUACAGUCCGACGAUCGUUGUUCUUUUUCUUUCUGUUUUCAAACAGAUCAAAAGGAGCACGUCGUGGGACAAAUAGAAGGGCUCUGAAUUCCAACUGUCCUUCAACUGAAAAAUGCUUCACUGCCAAGUGAUCUUCCAACAGAGGAUUGAGCAUCA
B21: chr1:220276048:220276049:+_ENSG00000067704_ENST00000302637|hu_hu|hu_hu_hu_mus_True|68_68 (ssRNA)
RNA: GGGAGUUCUACAGUCCGACGAUCGCAAAUUGCCUGGUUGGCGGGAAUUGUCCAAGGCUGGGUGGUCCAGACCAAAACGCUAACAGGGGAUGAGGCAUCUGUAAGAGACUCCAACUUCGGAGGAGGUCUCAGGAGGGGGAAUCUCAACAGAGGAUUGAGCAUCA
B22: chr2:168013125:168013126:-_ENSMUSG00000051149_ENSMUST00000088001|mus_mus|motif|central (ssRNA)
RNA: GGGAGUUCUACAGUCCGACGAUCCUCCCAUGUAGUGUUUUUCAAAUAAAAGUCAUUAGGUUCAAACUGUUUAAAAUCUUCGGUAUGUUCUUUACAGUAUUCCAACCCAAUGUCACUAAGUAUUUUUUUCACAGUUUUCCGGGCCAACAGAGGAUUGAGCAUCA

molecular target: T1, UNK ZnF1-3; assay: nsRBNS (natural sequence RNA bind-n-seq); RBNS binding buffer (assumed for nsRBNS): 25 mM Tris pH 7.5, 150 mM KCl, 3 mM MgCl2, 0.01% Triton X-100, 500 ug/ml BSA, 20 U/ml SUPERase-In, 4 C; UNK is unkempt and MSI1 is Musashi-1; names of the RNAs are library labels; protein concentration not given here; high values mean tight binding

Binder | binding signal
B1 | 0.62 enrichment R
B2 | 1.01 enrichment R
B3 | 1.02 enrichment R
B4 | 0.87 enrichment R
B5 | 0.777 enrichment R
B6 | 0.969 enrichment R
B7 | 0.745 enrichment R
B8 | 1.11 enrichment R
B9 | 0.845 enrichment R
B10 | 1.47 enrichment R
B11 | 0.601 enrichment R
B12 | 1.41 enrichment R
B13 | 1.57 enrichment R
B14 | 0.785 enrichment R
B15 | 2.16 enrichment R
B16 | 1.37 enrichment R
B17 | 1.56 enrichment R
B18 | 1.22 enrichment R
B19 | 0.813 enrichment R
B20 | 0.582 enrichment R
B21 | 1.49 enrichment R
B22 | 0.705 enrichment R
